# Assay results published in PubChem BioAssay AID1347073 (National Center for Advancing Translational Sciences (NCATS), 2019).
# Hit rate of the full screen: of about 45,000 compounds, about 200 (0.44%) were called active. Not shown: some 7% with an inconclusive outcome. Calls come from the whole dose curve; as a rule, active = well fitted activation curve with a large enough effect; inconclusive = small, poorly fitted or top-dose-only effect; inactive = no such curve, though single readings can be large or run the other way. Some of the results follow.
# Assay: qHTS of TDP-43 Inhibitors: NCGC Sytravon Library Screen; note: 0% is about no effect; nearly all actives have a fitted effect of over 55% in size
# Conditions: yeast TDP-43 toxicity rescue, BacTiter-Glo growth, 24 h; series mostly up to 46.1 µM; growth rescue (activation): at the top concentration
# Method in brief: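 TDP-43-expressing yeast, pregrown in raffinose, seeded at OD600 0.02 in galactose medium with compound for 24 hr at 30 deg C. Growth read by BacTiter-Glo luminescence, so rescue of toxicity appears as activation.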
row,SMILES,growth rescue (activation)
1,O=S(=O)(Cc1ccccc1)Nc1ccc(Br)cn1,inactive: -6.63%
2,CCc1ccc(C(=O)Nc2cc(C)on2)o1,inactive: 7.12%
3,O=C(Oc1ccc2ccc(=O)oc2c1)C1CCCCC1,inactive: -3.27%
4,COc1ccccc1/C=N/NC(=O)c1cccc(NC(=O)c2ccccc2C)c1,inactive: 3.65%
5,O=C(/C=C/Nc1nccs1)C(F)(F)Cl,inactive: -5.05%
6,O=C(NCc1ccccc1)c1cc(C2CCCN(C(=O)C3CCCCC3)C2)on1 (stereo not given),inactive: 0.857%
7,CC(C)(C)C(=O)Nc1nnc(SCC(=O)NC2CCCCC2)s1,inactive: -13.4%
8,Cc1c(C(=O)N2CCCc3ccccc32)oc2ccccc12,inactive: 27%
9,O=C(c1ccccc1)N1CCOC12CCN(c1ncc(C(F)(F)F)cc1Cl)CC2,inactive: 33%
10,COc1ccc(C2=NN(C(=O)C(O)c3ccccc3)C(O)(C(F)(F)F)C2)cc1 (stereo not given),inactive: 19.3%
11,COc1cc(CCC(=O)OCC(=O)Nc2c(F)cccc2F)cc(OC)c1OC,inactive: 3.61%
12,Cc1cc(=S)c2ccccc2[nH]1,inactive: 0.29%
13,COc1ccc(C(N)c2csc(Nc3ccc(C(=O)c4ccccc4)cc3)n2)cc1 (stereo not given),inactive: 8.51%
14,CCc1cccc2c(C(=O)CN3C(=O)NC4(CCCCC4)C3=O)c[nH]c12,inactive: 24.6%
15,CCOC(=O)C1C(=O)NC(c2ccccc2)=NC1c1ccc(O)c(OC)c1 (stereo not given),inactive: 4.47%
16,O=C(Nc1ccc(CN2CCCCC2)cc1)Nc1ccc(Br)cc1Cl,inactive: 1.24%
17,O=C(NCc1ccco1)C(c1ccncc1)N(C(=O)Cc1cccs1)c1ccccc1 (stereo not given),inactive: -0.121%
18,COc1ccc(NC(=O)CCNS(=O)(=O)c2cccc3nonc23)cc1Cl,inactive: -3.43%
19,Cc1c(NC(=O)COC(=O)c2cc(-c3cccc4ccccc34)nc3ccccc23)c(=O)n(-c2ccccc2)n1C,inactive: 20%
20,COc1ccc(C2Nc3ccccc3C(=O)N2NS(=O)(=O)c2ccccc2)cc1 (stereo not given),inactive: -15%
21,CC1CCN(S(=O)(=O)N2CCC(C(=O)O)CC2)CC1,inactive: -0.743%
22,O=C(/C=C/c1nc2ccccc2s1)N1CCCCCC1,inactive: -8.78%
23,O=C(CSc1nc(C2CC2)nc2c1cnn2-c1ccccc1)Nc1c[nH]c(=O)[nH]c1=O,inactive: -43.6%
24,CN(C)c1ncc(S(=O)(=O)c2ccccc2)c(N)n1,inactive: 1.83%
25,COc1cc(/C=C2\SC(=S)N(NC(=O)c3ccc(O)c(OC)c3)C2=O)ccc1O,inactive: -17.7%
26,CC(=O)Nc1ccc(C(C#N)c2ccccc2)cc1 (stereo not given),inactive: -2.22%
27,Cc1ccccc1NC(=O)C(=O)NC(C)CCc1ccccc1 (stereo not given),inactive: 8.58%
28,CCCN(CC(=O)Nc1ccc(Cl)cc1Cl)C(=O)/C=C/c1cc(OC)ccc1OC,inactive: -12.5%
29,O=C(OC(C(=O)Nc1ccc(Cl)cc1C(F)(F)F)c1ccccc1)c1c(Cl)cccc1Cl (stereo not given),inactive: 1.88%
30,O=C(Oc1ccc2c(-c3ccccc3)cc(=O)oc2c1)c1cccs1,inactive: 1.17%
